Laboratory results as given in a compilation of properties of binary mixtures (doi:10.1021/acs.jpcb.0c03296).
The densities may have been worked out from excess volumes.

Test: xn = mol fraction of the nth substance listed
Settings: 100 kPa

C[N+](C)(C)CCO.O=S(=O)([N-]S(=O)(=O)C(F)(F)F)C(F)(F)F + OCCO
mass density [kg/m3]
Settings	298.1 K	303 K	308.1 K	313 K	318.1 K	323 K	328.1 K
x1 = 0.14	1278.8	–	1270.7	1266.6	1262.5	–	1254.2
x1 = 0.2	1319.6	1315.4	1311.2	1307	1302.7	1298.5	1294.1
x1 = 0.333	1384.9	1380.6	1376.2	1371.8	1367.4	1363	1358.6
